Laboratory results published in the supplement of paper PMC4967469.
IC50 is the fitted dose that halves viability relative to control wells, and lower means more sensitive; a fit beyond the top or the lowest dose is shown as a bound at that dose. The AUC spans the tested range (256-fold, ending at the top dose) of the same fit; values near 1 show little effect. For some assays here: A top dose marked as inferred comes from the curve model; the source does not state it.

Experiments:
Test in all cases: Viability of human cancer cell lines after 72 h of drug (GDSC screen)
BMS-345541 = compound: Cc1ccc2nc(NCCN)c3ncc(C)n3c2c1 [BMS-345541]; conditions: top dose 16 µM
Description: (§1)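 Human cancer cell lines in 384-well plates, medium with 10% serum, drug for 72 h over a 256-fold dose range (nine 2-fold or five 4-fold steps up to the top dose). Adherent lines were fixed and stained with the nucleic acid dye Syto60, suspension lines read with resazurin; signal relative to control wells, capped at 0 and 100%. One two-parameter sigmoid per drug and line, fitted in a mixed model over all curves with the slope shared within a line.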

GSK-650394 = compound: O=C(O)c1ccc(-c2c[nH]c3ncc(-c4ccccc4)cc23)cc1C1CCCC1 [GSK-650394]; conditions: top dose 16 µM; top dose inferred
Description: as §1

NPK76-II-72-1 = compound: COc1cc(C(=O)NC2CCN(C)CC2)ccc1Nc1ncc2c(n1)N(C1CCCC1)C(C)CC(=O)N2C [NPK76-II-72-1]; conditions: top dose 10.24 µM; top dose inferred
Description: as §1

Etoposide = compound: COc1cc([C@@H]2c3cc4c(cc3[C@@H](O[C@@H]3O[C@@H]5CO[C@@H](C)O[C@H]5[C@H](O)[C@H]3O)[C@H]3COC(=O)[C@H]23)OCO4)cc(OC)c1O [Etoposide]; conditions: top dose 16 µM
Description: as §1

YK 4-279 = compound: COc1ccc(C(=O)CC2(O)C(=O)Nc3c(Cl)ccc(Cl)c32)cc1 [YK 4-279]; conditions: top dose 10 µM
Description: as §1

AZD7762 = compound: NC(=O)Nc1cc(-c2cccc(F)c2)sc1C(=O)N[C@H]1CCCNC1 [AZD7762]; conditions: top dose 2 µM
Description: as §1

Bexarotene = compound: C=C(c1ccc(C(=O)O)cc1)c1cc2c(cc1C)C(C)(C)CCC2(C)C [Bexarotene]; conditions: top dose 8 µM
Description: as §1

XAV 939 = compound: Oc1nc(-c2ccc(C(F)(F)F)cc2)nc2c1CSCC2 [XAV 939]; conditions: top dose 5 µM; top dose inferred
Description: as §1

Cell Line	AUC (BMS-345541)	IC50 (BMS-345541)	AUC (GSK-650394)	IC50 (GSK-650394)	AUC (NPK76-II-72-1)	IC50 (NPK76-II-72-1)	AUC (Etoposide)	IC50 (Etoposide)	AUC (YK 4-279)	IC50 (YK 4-279)	AUC (AZD7762)	IC50 (AZD7762)	AUC (Bexarotene)	IC50 (Bexarotene)	AUC (XAV 939)	IC50 (XAV 939)
HuO-3N1 (osteosarcoma, adherent)	0.911	> 16 µM	0.981	> 16 µM	0.965	> 10.2 µM	0.797	10.5 µM	0.855	> 10 µM	0.668	0.429 µM	0.887	> 8 µM	0.952	> 5 µM
IA-LM (large cell lung carcinoma, adherent)	0.905	> 16 µM	0.679	3.37 µM	0.937	> 10.2 µM	0.682		0.92	> 10 µM	0.858	1.97 µM	0.816	5.15 µM	0.954	> 5 µM
IHH-4 (thyroid, semi-adherent)	0.905	13.9 µM	0.729	3.8 µM	0.991	> 10.2 µM	0.185	0.15 µM	0.649	1.47 µM	0.605	0.228 µM	0.93	> 8 µM	0.986	> 5 µM
IMR-5 (neuroblastoma, adherent)	0.808	6.71 µM	0.9	14.7 µM	0.798	4.01 µM	0.314	0.333 µM	0.669	1.69 µM	0.923	> 2 µM	0.991	> 8 µM	0.954	> 5 µM
IST-SL1 (small cell lung carcinoma, semi-adherent)	0.835	10.9 µM	0.832	10.7 µM	0.538	0.815 µM	0.831	10.5 µM	0.774	4.04 µM	0.762	0.733 µM	0.972	> 8 µM	0.95	> 5 µM
JEG-3 (urogenital system, adherent)	0.967	> 16 µM	0.961	> 16 µM	0.991	> 10.2 µM	0.586	1.67 µM	0.727	2.56 µM	0.808	0.912 µM	0.921	> 8 µM	0.966	> 5 µM
JHH-1 (liver, adherent)	0.887	> 16 µM	0.766	6.4 µM	0.964	> 10.2 µM	0.748	5.53 µM	0.705	2.5 µM	0.755	0.734 µM	0.776	3.47 µM	0.971	> 5 µM
JHH-2 (liver, adherent)	0.893	> 16 µM	0.981	> 16 µM	0.957	> 10.2 µM	0.928	> 16 µM	0.796	5.08 µM	0.766	0.794 µM	0.985	> 8 µM	0.952	> 5 µM
JHH-4 (liver, adherent)	0.983	> 16 µM	0.872	15.2 µM	0.872	9.7 µM	0.733	4.59 µM	0.66	1.74 µM	0.98	> 2 µM	0.894	> 8 µM	0.928	> 5 µM
